Hit rate of the full screen: of about 45,000 compounds, about 65 (0.1%) were called active. The call rests on the fitted dose curve; in most records, active means well fitted activation curve with a large enough effect; inconclusive means small, poorly fitted or top-dose-only effect; inactive means no such curve, though single readings can be large or run the other way. The list shows a part of the results.
molecular target: Galactocerebrosidase (Homo sapiens) (UniProt P54803); test: A Novel Cell-Based Assay to Identify Small Molecules for B -Galactocerebrosidase; conditions: 145M-Twi-hGALC-G270D cells (Twitcher mouse brain line with human GALC G270D), HMU-beta-Gal fluorescence, 48 h; series mostly up to 57.5 µM; activation: at the top concentration; further: 0% is about no effect; nearly all actives have a fitted effect of over 65% in size
Method in brief: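 Fluorescence readout: HMU-β-gal cleavage by mutant GALC (0.1 mM final, citrate/phosphate pH 5.2 with 1 mg/mL taurocholate), stopped with carbonate/bicarbonate plus Triton X-100. Cells: murine Twitcher 145M-Twi expressing human G270D GALC; qHTS for activators.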

Chain of UniProt P54803 (P54803 whole entry, looked up): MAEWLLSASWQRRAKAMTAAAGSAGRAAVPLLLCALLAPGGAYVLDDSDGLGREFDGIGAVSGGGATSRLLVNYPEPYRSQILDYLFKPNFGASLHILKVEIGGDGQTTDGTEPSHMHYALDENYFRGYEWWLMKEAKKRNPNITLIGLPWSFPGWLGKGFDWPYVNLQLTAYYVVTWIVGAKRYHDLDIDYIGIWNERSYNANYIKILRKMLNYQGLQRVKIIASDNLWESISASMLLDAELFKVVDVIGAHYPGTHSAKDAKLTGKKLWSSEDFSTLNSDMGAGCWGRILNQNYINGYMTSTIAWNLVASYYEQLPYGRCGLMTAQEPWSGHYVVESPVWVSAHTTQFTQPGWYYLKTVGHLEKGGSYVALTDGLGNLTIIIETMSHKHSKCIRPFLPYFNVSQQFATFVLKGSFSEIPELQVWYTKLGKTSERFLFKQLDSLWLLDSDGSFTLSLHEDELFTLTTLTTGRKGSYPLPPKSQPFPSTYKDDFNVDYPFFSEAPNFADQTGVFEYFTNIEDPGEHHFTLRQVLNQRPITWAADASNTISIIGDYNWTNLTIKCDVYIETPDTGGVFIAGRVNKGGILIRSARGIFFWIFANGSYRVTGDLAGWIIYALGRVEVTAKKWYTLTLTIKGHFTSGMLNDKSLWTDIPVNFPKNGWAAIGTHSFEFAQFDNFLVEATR

activation, inactive:
CCc1ccc(-n2nc(CO)c(C(=O)NCC(c3ccccc3)c3ccccc3)n2)cc1 -7.92%, CCN(CC)CCCNC(=O)CSc1nc2nc(C)c(Cc3c(F)cccc3Cl)c(C)n2n1 -15.6%, CCCc1nc2c(C)cc(-c3nc4ccccc4n3C)cc2n1Cc1ccc(-c2ccccc2C(=O)O)cc1 -7.72%, Cc1ccc(C)c(NC(=O)Cn2c(=O)n(Cc3ccc4c(c3)OCO4)c(=O)c3oc4ccccc4c32)c1 -8.37%, CC1=C(C(N)=O)C(c2cccc(C)c2)n2nc(-c3cccc(C)c3)nc2N1 (configuration not stated) -9.52%, COc1ccc(-c2noc(CSc3nc(C)cc(=O)[nH]3)n2)cc1OC -9.34%, Cc1ccc(CSc2nnc(-n3c(=O)c(C#N)cc4c(=O)n5cc(C)ccc5nc43)s2)cc1 -8.19%, COc1ccc(OCC2c3cc(OC)c(OC)cc3CCN2C(=O)COc2ccc(Cl)cc2Cl)cc1 (configuration not stated) -21.5%, COc1ccc(Cn2ccc3nc(C)c(C(=O)N4CCN(c5ccccc5OC)CC4)cc3c2=O)cc1 -13.4%, CC(C)NC(=O)C(c1ccccc1)N1Cc2ccccc2C1=O (configuration not stated) -20.1%, CC(C)c1ccc2occ(CC(=O)Nc3ccccc3Cl)c2c1 -23.5%, CCOC(=O)C1CCN(S(=O)(=O)c2ccc(N3CCCCS3(=O)=O)cc2)CC1 18.6%, CCCCOC(=O)c1ccc(O)cc1 -7.52%, COCCCOc1cc(C[C@@H](C[C@H](N)[C@@H](O)C[C@H](C(=O)NCC(C)(C)C(N)=O)C(C)C)C(C)C)ccc1OC 2.03%, CCCn1c(=O)c2sccc2n2c(CCCC(=O)Nc3ccc(Oc4ccccc4)cc3)nnc12 -9.68%, CCn1c(SCc2ccc(F)cc2Cl)nc(=O)c2c(C(=O)OC)cc(C3CC3)nc21 -3.78%, CC(C)C1N=C2c3ccccc3N=C(SCC(=O)NCc3ccccc3Cl)N2C1=O (configuration not stated) -16.4%, CNCCCCOc1ccccc1Cc1ccccc1 -7.76%, Cc1ccc(CNC(=O)c2cc(-c3ccc(C)cc3)nc3n[nH]c(-c4ccc(F)cc4)c23)cc1 -10.7%, CC(=O)Nc1ccc(S(=O)(=O)NCc2cccn2Cc2cccc(C)c2)cc1 -9.75%, CCOc1ccc(CN2C(=O)c3ccccc3Sc3ccc(C(=O)OC)cc32)cc1 -14.2%, COc1ccc(OC)c(CNC(=O)c2c(C)oc3ncn(C)c(=O)c23)c1 -8.13%, O=C(c1ccc2c(c1)CCN2S(=O)(=O)c1ccc(Cl)cc1)N1CCN(c2ccccc2)CC1 -31.4%, Nc1ccccc1N -4.5% [at 114 µM], COc1ccc(CNC(=O)c2ccc3c(c2)N(Cc2ccccc2C)C(=O)c2ccccc2S3=O)cc1 (configuration not stated) -8.15%, O=C(NCc1ccc(F)cc1)C1CCN(c2ncnc3c2nc2n3CCCCC2)CC1 -13.9%, CC(C)(C)OC(=O)N1CCC(c2c(C(=O)N3CCN(c4ccccn4)CC3)cnn2-c2ccccc2Cl)CC1 -12.8%, CC(=O)c1ccc(NC(c2ccc(F)cc2)c2nnc(-c3ccccc3)o2)cc1 (configuration not stated) -1.59%, CCOC(=O)c1[nH]c(C)c(CCC(=O)N2CCN(c3cccc(C)c3C)CC2)c1C -10.9%, Cc1ccc2nc(-c3ccncc3)c(Nc3ccc(C(C)C)cc3)n2c1 -4.34%, CCOCCCNC(=O)c1cn(CC)c2ccc(S(=O)(=O)N3CCc4ccccc4C3)cc2c1=O -17.2%, COc1cc(C(CC(=O)Nc2cc(C)ccc2C)N2Cc3ccccc3C2=O)cc(OC)c1OC (configuration not stated) -25.3%, CN(Cc1ccccc1)C(=O)c1cccc(NC(=O)c2nsc3ccccc23)c1 -28.5%, CCOc1ccc(CC(=O)NCCc2csc(-c3ccc(Cl)cc3)n2)cc1 -6.01%, CCc1ccc(Nc2sc(C(=O)c3ccccc3)c(N)c2S(C)(=O)=O)cc1 -16.6%, CCOCCc1nn2c(=O)cc(COC(=O)CNC(=O)c3ccc(F)cc3)nc2s1 -8.36%, CCN(CC)c1cc(C)c2cc(NC(=O)c3ccc(F)cc3Cl)ccc2n1 3.5%, CCOc1ccccc1NC(c1nnc(-c2ccccc2)o1)c1ccc(F)cc1Cl (configuration not stated) -9.12%, Cn1c(=O)oc2cc(S(=O)(=O)N3CCC(C(=O)N4CCN(c5ccc(Cl)cc5)CC4)CC3)ccc21 -44.6%, CCN(C(=O)c1cc2c(=O)oc3ccc(C)cc3c2s1)c1ccccc1F -25.7%, CCOC(=O)c1c(NC(=O)c2ccc(OC)c(OC)c2)sc2c1CCCCC2 -18.8%, O=C(CCOc1ccccc1)N(Cc1cccnc1)c1nc2ccc(F)cc2s1 -13.2%, O=C(Nc1ccc2oc(-c3ccc(Cl)cc3)nc2c1)c1ccc2ccccc2c1 -7.98%, Cc1ccccc1CNC(=O)Nc1ccc2c(c1)N(C)C(=O)c1ccccc1S2 -3.42%, COc1ccc(C2CC(=O)N(Cc3ccccc3)c3c2c(C)nn3-c2nc(C)cc(C)n2)c(OC)c1 (configuration not stated) -12.8%, Cc1cccc(NS(=O)(=O)c2ccc(NC(=O)N3CCCC3)cc2)c1 -17.2%, CCOc1ccc(-c2oc3cc(Cl)ccc3c(=O)c2O)cc1OC -5.68%, CCN(CC)CCCN(c1ccccc1)C1Cc2ccccc2C1 -21%, C/C=C/c1ccc(O)c(OC)c1 -8.85%, CCc1ccc(NS(=O)(=O)c2ccc3[nH]cc(C(=O)N(C)Cc4ccco4)c(=O)c3c2)cc1 -6.11%, CCc1ccccc1NC(=O)Cn1cc2c(n1)CCC(C)C2 (configuration not stated) -19.1%, CCC(=O)N1CCc2cc(Br)cc(S(=O)(=O)CCC(=O)NCCc3ccccc3)c21 -8.28%, O=c1cc(-c2ccccc2)c2ccc3c(c2o1)CN(Cc1ccccc1)CO3 -16.3%, CC(C)CN(CCNC(=O)c1cn(C)c2ccc(S(=O)(=O)N3CCCC3)cc2c1=O)CC(C)C -9.44%, CCCN(C(=O)CCNC(=O)Cn1cnc2ccccc2c1=O)c1cccc(C)c1 -6.12%, CCOc1cc(C2c3c(oc4ccccc4c3=O)C(=O)N2c2ccccn2)ccc1O (configuration not stated) -15.1%, Cc1ccc(C)c(-c2[nH]c3c(c2-c2c(-n4cccc4)n(C)c(=O)n(C)c2=O)c(=O)n(C)c(=O)n3C)c1 0.924%, Cc1cccc(NC(=O)COc2cccc3c(=O)n(C)ccc23)c1C -12.2%, Cc1ccc(-n2nc(C(=O)N3CCN(c4cccc(C(F)(F)F)c4)CC3)c3c4ccccc4n(C)c3c2=O)cc1 -6.08%, CCOC(=O)c1ccc2[nH]c(CSc3nnc(-c4cccc(F)c4)n3C)cc(=O)c2c1 0.789%, CCC(C)NC(=O)c1sc2ncccc2c1-n1c(C)ccc1C (configuration not stated) -17.8%, Cc1ccc(CNc2cc(C)nc3nc(-c4cccc(C)c4)nn23)cc1 -37.9%, CCOC(=O)c1c(NC(=O)c2cc(Cl)ccc2Cl)sc2c1CCCC2 8.32%, COc1ccc(OC)c(NC(=O)c2cc(=O)c3c(C)cc(C)cc3o2)c1 -6.9%, Cc1ccc(CNc2nccn(-c3cc(C)cc(C)c3)c2=O)cc1 -8.9%, CCN(C(=O)CSc1nc2n[nH]c(C)c2c(=N)n1-c1cccc(OC)c1)c1cccc(C)c1 -4.47%, COc1ccc(-c2ccc(CCC(=O)O)n2-c2ccc(Cl)cc2C)cc1 -4.68%, CCN(C(=O)CSc1nc2ccccc2n1CC(=O)Nc1ccc(F)cc1F)c1ccccc1 -23.4%, CCOC(=O)c1cccc(NC(=O)CCc2c(C)nn(-c3ccc(N4CCOCC4)nn3)c2C)c1 1.28%, Cc1cn2c(=O)c(S(=O)(=O)NCc3ccccc3Cl)c(C)nc2s1 -3.89%, Cc1cc(C)n(CCc2nc3c4ccccc4nc(N4CCN(c5ccc(F)cc5)CC4)n3n2)n1 -4.85%, COCCCn1c(=O)c2sccc2n2c(CCCC(=O)NCc3ccc(F)cc3)nnc12 -9.54%, CCn1cc(S(=O)(=O)c2cccc(C)c2)c(=O)c2cc(F)c(N3CCN(c4ccccc4)CC3)cc21 4.38%, COc1ccc(NC(=O)C2CCN(c3cnccn3)CC2)cc1Cl 0.362%, Cc1ccc2[nH]c3c(=O)n(CC(=O)NCCc4ccc(Cl)cc4)ncc3c2c1 3.37%, COc1ccc(C2Oc3nc(SC)nnc3-c3ccccc3N2C(C)=O)cc1 (configuration not stated) -4.16%, CCc1ccc(-n2nc(CO)c(C(=O)NCc3ccccc3OC)n2)cc1 -7.98%, COc1ccc(CNC(=O)c2cnn(-c3ccc(F)cc3)c2-n2cccc2)cc1 -2.68%, CCCCN(CCCNC(=O)c1c(C)oc2nc[nH]c(=O)c12)Cc1ccccc1 -10.1%, Cc1ccc(NC(=O)Cn2cc(S(=O)(=O)N3CCC(C)CC3)c3ccccc3c2=O)c(Br)c1 2.53%, Cc1cccc(Oc2ccc3c(c2)Oc2ccccc2NC3=O)c1 -28.6%, COc1ccc(-c2nnc(SCC(=O)N(C)Cc3ccccc3)o2)cc1OC 5.41%, CNC(=O)c1c(NC(=O)c2ccc(S(=O)(=O)N3CCCCC3C)cc2)sc2c1CCC2 (configuration not stated) -23.1%, Cc1ccc(Nc2c(-c3cccnc3)nc3ccc(Br)cn23)cc1 -16.6%, Cc1c(Cl)cccc1NC(=O)Cn1cc2c(n1)CCCC2 -20.2%, COc1ccc(C)cc1-n1nnc(C(=O)Nc2cccc(SC)c2)c1C -13.1%, CCOC(=O)c1cc(-c2ccccc2)n(-c2cccc(C(=O)Nc3cccc(C(C)=O)c3)c2)c1C -6.87%, COc1cccc(N2CCN(C(=O)CN3C(=O)COc4ccc(S(=O)(=O)N5CCC(C)CC5)cc43)CC2)c1 -3.11%, Cc1oc2c(c(C)cc3oc(=O)c(CC(=O)NCc4ccccc4)c(C)c32)c1C -13.9%, Cc1cccc(CNC(=O)c2ccc(NC(=O)N3CCSc4ccccc43)cc2)c1 -7.36%, COc1ccc(C(=O)NCC(c2cccnc2)N2CCc3ccccc32)cc1OC (configuration not stated) -18.7%, Cc1ccc(NC(=O)Cn2c(SCc3ccc(F)cc3)nc3cccnc32)cc1F -14.5%, O=C(O)c1ccc(NC(=O)c2cc3ccccc3o2)cc1 -6.11%, O=C(NCCCN1CCN(c2ccccc2F)CC1)c1cc2c(s1)-c1ccccc1OC2 -15.3%, O=C(CSc1nc2c([nH]c3ccccc32)c(=O)n1-c1ccccc1)N1CCCCCC1 -9.76%, CC1CCc2c(sc(NC(=O)COc3ccccc3C(C)(C)C)c2C#N)C1 (configuration not stated) -16.7%, Cc1nc2c3ccccc3nc(NNC(=O)CCC(=O)N3CCN(c4cccc(C(F)(F)F)c4)CC3)n2n1 -9.11%
